From paper PMC4336329 (PLoS ONE, 2015)
The campaign covered roughly 310,000 compounds. About 2,200 (0.71%) showed an effect of 50% or more. Effects have a minus sign here. The list shows a part of the results.

biological target: human ether-à-go-go-related gene (hERG) potassium channel (human, UniProt Q12809); assay: primary screen, population patch clamp on CHO cells stably expressing hERG
Sequence (Q12809 whole entry, looked up): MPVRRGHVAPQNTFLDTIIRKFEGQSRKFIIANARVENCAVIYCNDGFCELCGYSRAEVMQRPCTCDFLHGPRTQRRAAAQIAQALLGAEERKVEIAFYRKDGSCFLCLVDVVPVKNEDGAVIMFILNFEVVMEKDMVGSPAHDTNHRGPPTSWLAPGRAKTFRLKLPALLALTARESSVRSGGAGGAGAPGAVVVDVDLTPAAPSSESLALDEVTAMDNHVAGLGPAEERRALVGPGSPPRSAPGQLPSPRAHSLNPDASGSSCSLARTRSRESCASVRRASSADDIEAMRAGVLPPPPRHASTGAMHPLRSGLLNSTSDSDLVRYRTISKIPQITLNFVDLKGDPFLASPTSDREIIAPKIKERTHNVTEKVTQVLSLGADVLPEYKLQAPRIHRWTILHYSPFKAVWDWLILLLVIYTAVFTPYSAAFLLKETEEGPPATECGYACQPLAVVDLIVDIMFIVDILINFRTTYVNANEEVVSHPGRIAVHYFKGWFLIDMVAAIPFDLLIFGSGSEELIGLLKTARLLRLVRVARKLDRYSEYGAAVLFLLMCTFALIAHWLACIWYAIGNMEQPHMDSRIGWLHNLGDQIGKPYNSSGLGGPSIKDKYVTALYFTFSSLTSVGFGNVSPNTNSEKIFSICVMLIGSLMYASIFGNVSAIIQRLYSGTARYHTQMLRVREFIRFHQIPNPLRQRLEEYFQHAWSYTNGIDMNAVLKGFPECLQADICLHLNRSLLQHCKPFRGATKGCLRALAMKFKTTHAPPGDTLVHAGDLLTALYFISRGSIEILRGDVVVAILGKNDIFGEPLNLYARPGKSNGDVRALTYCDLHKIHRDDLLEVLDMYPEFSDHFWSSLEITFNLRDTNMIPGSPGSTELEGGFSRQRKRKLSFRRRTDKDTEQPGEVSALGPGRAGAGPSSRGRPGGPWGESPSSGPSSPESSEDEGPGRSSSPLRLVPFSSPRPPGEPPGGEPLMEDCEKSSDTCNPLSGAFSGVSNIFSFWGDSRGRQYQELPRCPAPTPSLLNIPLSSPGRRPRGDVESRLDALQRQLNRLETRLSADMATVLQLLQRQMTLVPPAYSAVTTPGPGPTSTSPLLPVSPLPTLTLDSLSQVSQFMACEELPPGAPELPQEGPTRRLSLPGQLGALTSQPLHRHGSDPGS

Structure (SMILES) | hERG current change (%, negative = inhibition) at 1uM [%]
CCOC(=O)C(=Cc1ccc(Br)cc1)C(=O)OCC | 11.1
CCC(=NCCN1CCNCC1)C1=C(O)CC(C)(C)CC1=O | 10.2
CCc1ccc(NC(=O)CCS(=O)(=O)c2cccc3nsnc23)cc1 | -2.36
CCN(CC(=O)Nc1ccc(NC(C)=O)cc1)C(=O)Cc1ccc(S(=O)(=O)N2CCOCC2)s1 | 12.9
O=C(COc1ccc(Cl)cc1Cl)OCn1nnc2ccccc2c1=O | 20
CCC(=O)Nc1ccc(NC(=S)NC(=O)/C=C/c2ccccc2)cc1 | 11.1
COc1ccc(-c2cc(C(=O)N3CCc4ccccc4C3)no2)cc1OC | 8.83
Cc1onc(C(=O)NN)c1-c1csc(COc2ccc(Cl)cc2)n1 | 3.39
COc1cccc(OCCn2cc(C=O)c3ccccc32)c1 | 20.4
CCOc1ccc(CCNC(=O)C(CCC(N)=O)NC(=O)OCc2ccccc2)cc1OCC (stereo not shown) | 5.68
CCOC(CNC(=O)c1ccc2c(c1)ncn2-c1cccc(F)c1)OCC | 0.423
C=CCn1cc(C(=O)NCCN(CC)CC)c(=O)c2cc(S(=O)(=O)N3CCCCCC3)ccc21 | -9.01
COC(=O)CSc1nc2ccccc2c(=O)n1Cc1ccccc1 | 1.98
COc1ccc(NC(=O)CN(C)C(=O)c2c(C)nn(Cc3ccccc3)c2C)cc1 | 8.13
CC1Cc2cc(S(=O)(=O)NCCC(=O)N(C)Cc3ccccc3)ccc2N1C(=O)C1CC1 (stereo not shown) | 2.31
O=C(CCC(=O)N1CCOc2ccccc21)Nc1ccccc1Br | -10
O=C(COc1ccccc1Br)NCc1ccco1 | -7.49
Cc1ccc(OCC(=O)c2cc(C)n(Cc3ccco3)c2C)c([N+](=O)[O-])n1 | -4.25
CCCn1c(SCC(=O)OCC)nc(C(F)(F)F)cc1=O | 1.23
Cc1onc(C(=O)NN)c1C(=O)N1CCN(C(c2ccccc2)c2ccccc2)CC1 | 15.5
CC(=O)c1ccc2c(c1)OCCOCCOc1ccccc1OCCOCCO2 | -82.5
Cc1csc(SCc2c(C(=O)O)oc3ccccc23)n1 | 15.5

Structure (SMILES) | hERG current change (%, negative = inhibition) at 1uM [%]
OC(COCc1cccs1)CN1CCN(c2ccccc2Cl)CC1 (stereo not shown) | -50.8
CCOC(=O)c1c(NC(=O)COC(=O)c2ccccn2)sc2c1CCC2 | 6.38
Nc1cc2c(cc1[N+](=O)[O-])OCO2 | 11.3
CC[C@]1(c2ccccc2OC)ON(c2ccccc2C(F)(F)F)C1=O | 13.8
Cc1sc2ncnc(OCC(=O)N3CC(=O)Nc4ccccc43)c2c1C | -0.969
CCOc1ccc(N/C(=C(/C(Cl)=C(Cl)Cl)[N+](=O)[O-])n2cncn2)cc1 | 5.63
Cn1c(CNC(=O)C(Cc2ccccc2)NC(=O)c2ccccc2F)cc(=O)n(C)c1=O (stereo not shown) | 20.5
CC1=CC2=NC(=O)/C(=C\c3ccc(-c4cccc(Cl)c4)o3)C(=N)N2O1 | 14.5
Cc1cc(NC(=S)NC(=O)c2ccccc2)ccc1-c1cc2ccccc2oc1=O | 13
O=C(O)CCNC(=O)OCC1c2ccccc2-c2ccccc21 | 1.64
COc1ccc(CNC(=O)CCNS(=O)(=O)c2ccc(Cl)cc2)cc1 | -5.44
O=C1C(Cc2ccc(F)cc2)SC(=Nc2ccccc2)N1c1ccccc1 (stereo not shown) | 7.84
Oc1ccccc1C1=Nc2nc3ccccc3n2C(c2ccccc2)C1 (stereo not shown) | 9.3
O=C(/C=C\NCC(=O)c1ccccc1)c1ccc2ccccc2c1 | 13.1
O=C(COC(=O)c1ccc(O)cc1)Nc1ncc(Cl)cc1Cl | 4.84
Cc1ccc(NC(=O)c2ccc3nccnc3c2)c(C)c1 | 7.98
O=C(CSc1nnc(NC(=O)c2ccc(F)cc2F)s1)NC1CCCC1 | 18.7
CN(CC(=O)Nc1ccc(F)cc1)C(=O)CCc1nc2sc3c(c2c(=O)[nH]1)CCCC3 | -5.63
C#Cc1ccc([C@H]2C=C(C(=O)Nc3ccccc3)O[C@@H](OCc3ccc(CO)cc3)C2)cc1 | 7.58
Cc1cc(C(=O)COC(=O)C2=NNC(=O)CC2)c(C)n1-c1ccccc1 | -10.7
Cc1cc(C)cc(NC(=O)c2cccc3c2C(=O)N(C2CCCCC2)C3)c1 | 8.27
CC(C)C1CCN(C(=O)C2CCC(=O)N(CCc3ccc(Cl)cc3)C2)CC1 (stereo not shown) | -12.6

Structure (SMILES) | hERG current change (%, negative = inhibition) at 1uM [%]
Cn1c(=O)c2c(SCC(=O)N3CCCc4ccccc43)nc(C3CC3)nc2n(C)c1=O | -6.07
CCOC(=O)C1Nc2c(cc(C(F)(F)F)cc2[N+](=O)[O-])C2c3ccccc3CC12 (stereo not shown) | 4.87
Cc1ccc(NC(=S)NCC2CCCO2)cc1 (stereo not shown) | -29.3
CC(=O)Nc1cccc(NC(=O)CSc2n[nH]c(-c3ccccc3)n2)c1 | 11.8
CS(=O)(=O)N1CCC(C(=O)Nc2cc(C(F)(F)F)ccc2Cl)CC1 | 10.9
COc1ccc(CN(C)C(=O)Cc2c[nH]c3ccccc23)c(OC)c1OC | 9.45
Cc1ccc(-n2c(SCC(=O)NCc3ccco3)nc3c(sc4ccccc43)c2=O)cc1 | 13.2
Cc1cc(CN(C)C(=O)CC2C(=O)NCCN2Cc2ccc(F)c(F)c2)on1 (stereo not shown) | 9.57
CN(CC1CCOCC1)C(=O)CC1C(=O)NCCN1Cc1ccccc1F (stereo not shown) | 13.3
O=C(CC(CC(=O)c1ccc(Br)cc1)c1cccnc1)c1ccc(Br)cc1 | 16.1
COc1ccc(CCC2CCNCC2)cc1.Cl | 12.7
COc1ccc(OCC(=O)Nc2ccc(S(=O)(=O)N3CCN(C)CC3)cc2)cc1 | 10.3
Clc1ccc(SCc2cc(Cl)nc(-c3ccccc3)n2)cc1 | 16.5
Cc1cc(-c2cc(-c3ccc(Cl)cc3)nc(N)c2C#N)co1 | 7.72
Cc1c(C(=O)N(Cc2cccc(Br)c2)C2CCS(=O)(=O)C2)oc2ccc(F)cc12 (stereo not shown) | 9.61
N#Cc1cc(C#N)c(N2CCN(c3cccc(Cl)n3)CC2)nc1N | -3.52
CC1=NN(C(C#N)c2c(C)nn(Cc3ccccc3)c2C)C(C)(C)C1 (stereo not shown) | 8.87
CCOC(=O)c1ccc(NCc2ccncc2)cc1 | 6.86
O=S(=O)(c1ccc(Cl)cc1Cl)N1CCCC1c1cccnc1 (stereo not shown) | 10.7
Cc1cc(C(=O)N2CCCC(N3CCN(c4cccc(C(F)(F)F)c4)CC3)C2)nn1C (stereo not shown) | -1.14
O=C(Cc1cccc2ccccc12)NCC1CCCO1 (stereo not shown) | 2.35
CCS(=O)(=O)N1CCC(C(=O)Oc2ccc(Cl)cc2)CC1 | 11.2

Structure (SMILES) | hERG current change (%, negative = inhibition) at 1uM [%]
O=C(Nc1ccccc1)c1cc(S(=O)(=O)NCc2ccncc2)ccc1Cl | -5.71
COc1ccc(CNCCc2c[nH]c3ccccc23)cc1OC.O=C(O)C(=O)O | 2.69
O=C(CCC(=O)Nc1ccccc1)NNC(=O)C(c1ccccc1)c1ccccc1 | 3.09
O=C(C1CCCCC1)N1CCN(c2ncccn2)CC1 | 3.75
COc1ccc(CCNC2CCC(c3ccccc3)CC2)cc1 (stereo not shown) | -44.5
COCCN(CCOC)C(=O)C1CCN(c2ccc(S(=O)(=O)N3CCOCC3)cc2[N+](=O)[O-])CC1 | -2.9
Cc1nc2nc(SCC(=O)NCc3ccco3)nn2c(C)c1Cc1ccccc1 | -4.46
COc1ccc(Cl)cc1NS(=O)(=O)N1CCOCC1 | 9.8
N#Cc1cccc(OCC(=O)NC(=O)NCc2ccccc2)c1 | -1.76
COCCNC(=O)CN(C)S(=O)(=O)c1ccc(Br)cc1 | 3.19
C=CCn1c(O)c(C=NCCCn2ccnc2)c(=O)[nH]c1=O | 14.2
COc1cccc(N(C(=O)Cn2nnc(-c3cccs3)n2)C(C(=O)NC(C)C)c2ccc(C)o2)c1 (stereo not shown) | 9.65
Cc1cccc(-c2nc3ccccc3c(=O)[nH]2)c1 | 13.1
CCOc1ccc(CC(=O)C2=C(N3CCOCC3)CC(C)(C)CC2=O)cc1OCC | 7.38
COc1ccc(NC(=O)N(CCCN(C)C)Cc2cc3cc(OC)ccc3[nH]c2=O)cc1 | -7.1
O=C(/C=C/Nc1ccccc1OC(F)(F)F)C(F)(F)F | 5.08
COc1ccc(OC)c(S(=O)(=O)N2CCC(C(=O)N3CCCCCC3)CC2)c1 | 8.86
COC(=O)c1cn(NC(=O)c2cccnc2)c(=O)c2ccccc12 | 15
CN1/C(=C\C(=O)c2cccs2)C(C)(C)c2ccccc21 | 3.57
N=C1C(c2nc(-c3cccc([N+](=O)[O-])c3)cs2)=C(O)CN1NC(=O)c1ccco1 | 9.22
CNc1nc(Cl)nc(Nc2ccccc2)n1 | 17.5
Cc1c(/C=N/Nc2ccc(F)cc2)c(O)n(C)c(=O)c1C#N | 8.61
